Measurements: paper PMC12820563
Some of the results follow. The list includes weakly bound sequences.

Each sequence was assayed against T1, MBP-FoxP3dN (UniProt Q99JB6) (assay: PD-seq (MBP pull-down with sequencing)). Conditions: 20 mM Tris-HCl pH 7.5, 100 mM NaCl, 1.5 mM MgCl2, 0.4 uM protein, 0.1 uM dsDNA library, 30 min, room temperature, amylose pull-down; high values mean tight binding; double strand, one strand shown.
T1 sequence: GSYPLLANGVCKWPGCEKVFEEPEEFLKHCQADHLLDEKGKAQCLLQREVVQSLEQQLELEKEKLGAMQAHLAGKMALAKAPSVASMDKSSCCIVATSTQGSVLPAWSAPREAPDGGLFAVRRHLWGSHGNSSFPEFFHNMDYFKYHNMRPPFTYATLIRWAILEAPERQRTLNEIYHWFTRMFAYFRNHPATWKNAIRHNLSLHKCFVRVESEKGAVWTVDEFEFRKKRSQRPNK

| Sequence | binding signal (RPM ratio (pull-down/input)) |
| --- | --- |
| GATGATTGTTCTCCCAGCTGATGAATTTTACTGCTCGAGTAAACAAATTTTCCTAATCTTTCTGTTCAAGCGCCATCTAC | 0.33 |
| GATGATTGTTCTCCCAGCTGATGAATTATGCTCATCGAGTAAACAAATTTTCCTAATCTTTCTGTTCAAGCGCCATCTAC | 0.95 |
| GATGATTGTTCTCCCAGCTGATGAATTCCGGTTTTCGAGTAAACAAATTTTCCTAATCTTTCTGTTCAAGCGCCATCTAC | 0.679 |
| GATGATTGTTCTCCCAGCTGATGAATTCCGAATTTCGAGTAAACAAATTTTCCTAATCTTTCTGTTCAAGCGCCATCTAC | 1.44 |
| GATGATTGTTCTCCCAGCTGATGAATTCGTGATGTCGAGTAAACAAATTTTCCTAATCTTTCTGTTCAAGCGCCATCTAC | 1.1 |
| GATGATTGTTCTCCCAGCTGATGAATTGACAGCGTCGAGTAAACAAATTTTCCTAATCTTTCTGTTCAAGCGCCATCTAC | 0.464 |
| GATGATTGTTCTCCCAGCTGATGAATTTAATCCCTCGAGTAAACAAATTTTCCTAATCTTTCTGTTCAAGCGCCATCTAC | 0.333 |
| GATGATTGTTCTCCCAGCTGATGAATTCTCCTCTTCGAGTAAACAAATTTTCCTAATCTTTCTGTTCAAGCGCCATCTAC | 0.198 |
| GATGATTGTTCTCCCAGCTGATGAATTAGCTGCATCGAGTAAACAAATTTTCCTAATCTTTCTGTTCAAGCGCCATCTAC | 1.25 |
| GATGATTGTTCTCCCAGCTGATGAATTAATCTAGTCGAGTAAACAAATTTTCCTAATCTTTCTGTTCAAGCGCCATCTAC | 0.302 |
| GATGATTGTTCTCCCAGCTGATGAATTAACCCGATCGAGTAAACAAATTTTCCTAATCTTTCTGTTCAAGCGCCATCTAC | 0.202 |
| GATGATTGTTCTCCCAGCTGATGAATTCATATGCTCGAGTAAACAAATTTTCCTAATCTTTCTGTTCAAGCGCCATCTAC | 0.869 |
| GATGATTGTTCTCCCAGCTGATGAATTCTCGTATTCGAGTAAACAAATTTTCCTAATCTTTCTGTTCAAGCGCCATCTAC | 0.974 |
| GATGATTGTTCTCCCAGCTGATGAATTCTATGGATCGAGTAAACAAATTTTCCTAATCTTTCTGTTCAAGCGCCATCTAC | 0.457 |
| GATGATTGTTCTCCCAGCTGATGAATTTTATACATCGAGTAAACAAATTTTCCTAATCTTTCTGTTCAAGCGCCATCTAC | 0.598 |
| GATGATTGTTCTCCCAGCTGATGAATTGCAGCTATCGAGTAAACAAATTTTCCTAATCTTTCTGTTCAAGCGCCATCTAC | 1.39 |
| GATGATTGTTCTCCCAGCTGATGAATTGTTCTTTTCGAGTAAACAAATTTTCCTAATCTTTCTGTTCAAGCGCCATCTAC | 0.447 |
| GATGATTGTTCTCCCAGCTGATGAATTGAGGGTATCGAGTAAACAAATTTTCCTAATCTTTCTGTTCAAGCGCCATCTAC | 0.714 |
